{"source": "paper PMC6919601", "about": "“Identification of Plasmodium dipeptidyl aminopeptidase allosteric inhibitors by high throughput screening” (PLoS ONE, 2019)", "note": "Out of some 110,000 compounds screened, about 230 (0.21%) showed an effect of 50% or more. The list shows a part of the results.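 Further: 30 min substrate incubation versus DMSO and 10 µM JCP410 controls.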"}
{"target": "DPAP1 (Plasmodium falciparum, UniProt Q8IIJ9)", "sequence (Q8IIJ9 whole entry, looked up)": "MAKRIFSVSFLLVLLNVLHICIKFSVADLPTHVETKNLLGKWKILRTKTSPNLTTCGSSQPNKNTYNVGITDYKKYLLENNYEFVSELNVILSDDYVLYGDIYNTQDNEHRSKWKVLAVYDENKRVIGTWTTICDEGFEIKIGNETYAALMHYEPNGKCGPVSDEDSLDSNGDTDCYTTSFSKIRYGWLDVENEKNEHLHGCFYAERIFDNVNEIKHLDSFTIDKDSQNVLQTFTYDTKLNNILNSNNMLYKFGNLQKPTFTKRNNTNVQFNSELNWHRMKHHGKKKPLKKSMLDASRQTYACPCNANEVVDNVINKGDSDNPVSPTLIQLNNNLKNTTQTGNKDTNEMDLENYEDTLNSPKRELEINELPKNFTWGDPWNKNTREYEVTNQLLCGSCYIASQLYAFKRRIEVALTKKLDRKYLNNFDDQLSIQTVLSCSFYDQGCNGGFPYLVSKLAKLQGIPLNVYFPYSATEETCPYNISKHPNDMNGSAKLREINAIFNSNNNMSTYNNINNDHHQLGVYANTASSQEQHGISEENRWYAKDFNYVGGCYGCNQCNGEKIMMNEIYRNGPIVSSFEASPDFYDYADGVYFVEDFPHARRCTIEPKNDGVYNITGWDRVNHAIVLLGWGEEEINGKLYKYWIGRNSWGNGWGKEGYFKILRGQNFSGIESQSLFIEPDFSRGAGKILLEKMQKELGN", "assay": "primary screen, percent inhibition; read by cleavage of a fluorogenic dipeptide substrate; higher = more effect of the substance", "set-up": "species or system P. falciparum D10 trophozoite lysates; single well", "units": {"% Inhibition @ 10 uM": "%"}}
{"smiles": "c1ccc2c3c([nH]c2c1)CN(Cc1ccsc1)CC3", "% Inhibition @ 10 uM": 1.4}
{"smiles": "Cc1cc(C)c(C#N)c(Cl)n1", "% Inhibition @ 10 uM": 1.27}
{"smiles": "O=C1CC(C(=O)Nc2ccccc2)C(c2ccccc2)O1", "note": "(centres unmarked)", "% Inhibition @ 10 uM": -0.999}
{"smiles": "CC(C)(C)c1ccc(C(=O)n2cc(Cl)cn2)cc1", "% Inhibition @ 10 uM": -2.39}
{"smiles": "CN1C(=O)NC(c2cccc(F)c2)C2=C1CCCC2=O", "note": "(centres unmarked)", "% Inhibition @ 10 uM": -0.62}
{"smiles": "CCN1C(=O)CC(C(=O)Nc2ccc(C(=O)O)cc2)S/C1=N\\c1cccc(F)c1", "note": "(centres unmarked)", "% Inhibition @ 10 uM": -1.95}
{"smiles": "Nc1c(-c2nc(-c3ccc4c(c3)OCO4)no2)nnn1-c1ccccc1C(F)(F)F", "% Inhibition @ 10 uM": 1.66}
{"smiles": "Cc1ccc(-c2cc(C(=O)N3CCCCC3C)n[nH]2)cc1C", "note": "(centres unmarked)", "% Inhibition @ 10 uM": 0.713}
{"smiles": "O=C(/C=C/c1c[nH]c2ccccc12)N1CCCCC1", "% Inhibition @ 10 uM": -6.2}
{"smiles": "CC1CN(C)C(c2ccccc2)CC1=O", "note": "(centres unmarked)", "% Inhibition @ 10 uM": -6.25}
{"smiles": "Cc1nn(-c2ccccc2)c2c1C(c1cc(Br)ccc1F)C(C#N)=C(N)O2", "note": "(centres unmarked)", "% Inhibition @ 10 uM": -2.77}
{"smiles": "CCOC(=O)C1=C(O)/C(=C\\c2cccc(O)c2)N=C1C", "% Inhibition @ 10 uM": -3.63}
{"smiles": "O=C(CCc1nnc2n(CCc3ccccc3)c(=O)c3ccccc3n12)NCCc1ccc(Cl)cc1", "% Inhibition @ 10 uM": -0.326}
{"smiles": "NC(=O)NC(=O)Nc1ccc(Cl)cc1", "% Inhibition @ 10 uM": -0.807}
{"smiles": "O=C1CCCC2=C1C(c1cccs1)CC(=O)N2c1nnc(SCc2ccccc2Cl)s1", "note": "(centres unmarked)", "% Inhibition @ 10 uM": -4.73}
{"smiles": "Cc1nc2nc3[nH]c4ccccc4c3nn2n1", "% Inhibition @ 10 uM": 4.54}
{"smiles": "O=C(Cc1ccc(Cl)cc1)Nc1ccc(N2CCOCC2)cc1", "% Inhibition @ 10 uM": -6.36}
{"smiles": "Cc1oc(-c2ccc(C(=O)NCCN3CCCCCC3)cc2)nc1CS(=O)(=O)c1ccccc1", "% Inhibition @ 10 uM": -10.3}
{"smiles": "Cc1nc(Nc2nc3ccccc3s2)nc2c1CCC2", "% Inhibition @ 10 uM": -0.519}
{"smiles": "CCCc1cc(C(=O)Nc2cnn(Cc3ccccc3C)c2)no1", "% Inhibition @ 10 uM": -3.12}
{"smiles": "O=C(c1ccco1)N1CCN(C(=O)c2nc(-c3cccc(F)c3)n3c2CCCCC3)CC1", "% Inhibition @ 10 uM": 1.13}
{"smiles": "Nc1nc(-c2ccccc2O)cc(C(F)(F)F)n1", "% Inhibition @ 10 uM": 2.21}
{"smiles": "CCOC(=O)C1=C(c2ccccc2)N=C(S)NC1c1cc(Br)c(OC)cc1OC", "note": "(centres unmarked)", "% Inhibition @ 10 uM": 6.23}
{"smiles": "OCC1CCCCN1Cc1cccc2ccccc12", "note": "(centres unmarked)", "% Inhibition @ 10 uM": 4.55}
{"smiles": "CCOc1cc(/C=C2/S/C(=N/c3ccccc3)N(CC)C2=O)ccc1O", "% Inhibition @ 10 uM": -7.22}
{"smiles": "Cc1ccc(-c2nc3s/c(=C\\c4ccc(F)cc4)c(=O)n3n2)cc1", "% Inhibition @ 10 uM": -3.33}
{"smiles": "c1cc(-c2nc3ccccc3o2)nc(-c2nc3ccccc3o2)c1", "% Inhibition @ 10 uM": 0.628}
{"smiles": "O=C(c1ccc(F)cc1)N1CCN(c2ccc(N3CCOCC3)nn2)CC1", "% Inhibition @ 10 uM": 2.34}
{"smiles": "COc1cccc(/C=C2\\C(=O)C3CCN2CC3)c1", "% Inhibition @ 10 uM": -2.8}
{"smiles": "Cc1c(C)c(C)c(C=C2C(=O)c3ccccc3C2=O)c(C)c1C", "% Inhibition @ 10 uM": 0.98}
{"smiles": "Cc1ccc(CNC(=O)Cn2ncc3c(C)n(Cc4ccccc4)c(C)c3c2=O)cc1", "% Inhibition @ 10 uM": 5.91}
{"smiles": "CCC(C)c1ccc(OCCn2cccc2/C=C2/C(=N)N3C=CSC3=NC2=O)cc1", "note": "(centres unmarked)", "% Inhibition @ 10 uM": 0.275}
{"smiles": "Cc1ccc(CNC(=O)c2cc(-c3ccc(C)c(C)c3)[nH]n2)cc1", "% Inhibition @ 10 uM": 1.59}
{"smiles": "Clc1ccccc1-c1nc2ccccc2[nH]1", "% Inhibition @ 10 uM": 1.62}
{"smiles": "CCOC(=O)c1cnc2cc(Cl)c(C)cc2c1O", "% Inhibition @ 10 uM": 4.8}
{"smiles": "c1ccc(Cc2nn3c(-c4ccncc4)nnc3s2)cc1", "% Inhibition @ 10 uM": 5.82}
{"smiles": "COCCCNC(=O)N1CCC(CN2CCOCC2)CC1", "% Inhibition @ 10 uM": 3.7}
{"smiles": "Cc1ccc(CNS(=O)(=O)c2cc(-c3onc(C)c3C)ccc2C)cc1", "% Inhibition @ 10 uM": -1.52}
{"smiles": "Cn1c(=O)[nH]c(=O)c2c1nc(N1CCN(c3ccc(F)cc3)CC1)n2Cc1ccccc1", "% Inhibition @ 10 uM": -1.2}
{"smiles": "c1csc(-c2cnc3ccccc3n2)c1", "% Inhibition @ 10 uM": -7.87}
{"smiles": "Cn1c(=O)c2ncn(CC(=O)NCCOCc3ccccc3Cl)c2n(C)c1=O", "% Inhibition @ 10 uM": 2.44}
{"smiles": "CC(C)(C)C1CCC(C(=O)Nc2ccc(C(=O)O)cc2)CC1", "note": "(centres unmarked)", "% Inhibition @ 10 uM": 13.2}
{"smiles": "CC(=O)Nc1csc2ccccc12", "% Inhibition @ 10 uM": -6.83}
{"smiles": "O=C1C2C3C=CC(CC3)C2C(=O)N1c1ccc(F)cc1", "note": "(centres unmarked)", "% Inhibition @ 10 uM": 0.76}
{"smiles": "Cc1nn(-c2ccccc2)c(O)c1/C=N/c1ccc2[nH]c(O)nc2c1", "% Inhibition @ 10 uM": 1.01}
{"smiles": "CCS(=O)(=O)C1=NN2C(=N)/C(=C\\c3cc(C)n(-c4ccc(C)cc4)c3C)C(=O)N=C2S1", "% Inhibition @ 10 uM": 0.208}
{"smiles": "Cc1ccc(NC(=O)C2CCCN2C(=O)OC(C)(C)C)cc1C", "note": "(centres unmarked)", "% Inhibition @ 10 uM": 1.57}
{"smiles": "N=C1/C(=C/c2cn(CCCOc3ccccc3Cl)c3ccccc23)C(=O)N=C2SC=CN12", "% Inhibition @ 10 uM": -1.6}
{"smiles": "CCOC(=O)c1c(C)[nH]c(C)c1S(=O)(=O)N(CCOC)Cc1cccs1", "% Inhibition @ 10 uM": 0.359}
{"smiles": "Cc1ccccc1Cn1c(SCc2ccc(C(=O)NCCN(C)C)cc2)nc2ccncc21", "% Inhibition @ 10 uM": -1.92}
